Measurements: paper PMC4693258
Read-outs that look alike come from different tables or passages of the source. Results are given in words; binding and its absence hold for the method and conditions named. In cells and extracts the contact can be indirect. Some entries that bind do so weakly or less than the wild type. For some of these results: Sequences can lack the tags named with a protein.

Chains of the proteins cited; added tags and fusions are not shown. Lines headed by an entry give the natural chain unless they say otherwise; changes in a name come on top. Residues count along the entry.
UniProt Q9HAU5: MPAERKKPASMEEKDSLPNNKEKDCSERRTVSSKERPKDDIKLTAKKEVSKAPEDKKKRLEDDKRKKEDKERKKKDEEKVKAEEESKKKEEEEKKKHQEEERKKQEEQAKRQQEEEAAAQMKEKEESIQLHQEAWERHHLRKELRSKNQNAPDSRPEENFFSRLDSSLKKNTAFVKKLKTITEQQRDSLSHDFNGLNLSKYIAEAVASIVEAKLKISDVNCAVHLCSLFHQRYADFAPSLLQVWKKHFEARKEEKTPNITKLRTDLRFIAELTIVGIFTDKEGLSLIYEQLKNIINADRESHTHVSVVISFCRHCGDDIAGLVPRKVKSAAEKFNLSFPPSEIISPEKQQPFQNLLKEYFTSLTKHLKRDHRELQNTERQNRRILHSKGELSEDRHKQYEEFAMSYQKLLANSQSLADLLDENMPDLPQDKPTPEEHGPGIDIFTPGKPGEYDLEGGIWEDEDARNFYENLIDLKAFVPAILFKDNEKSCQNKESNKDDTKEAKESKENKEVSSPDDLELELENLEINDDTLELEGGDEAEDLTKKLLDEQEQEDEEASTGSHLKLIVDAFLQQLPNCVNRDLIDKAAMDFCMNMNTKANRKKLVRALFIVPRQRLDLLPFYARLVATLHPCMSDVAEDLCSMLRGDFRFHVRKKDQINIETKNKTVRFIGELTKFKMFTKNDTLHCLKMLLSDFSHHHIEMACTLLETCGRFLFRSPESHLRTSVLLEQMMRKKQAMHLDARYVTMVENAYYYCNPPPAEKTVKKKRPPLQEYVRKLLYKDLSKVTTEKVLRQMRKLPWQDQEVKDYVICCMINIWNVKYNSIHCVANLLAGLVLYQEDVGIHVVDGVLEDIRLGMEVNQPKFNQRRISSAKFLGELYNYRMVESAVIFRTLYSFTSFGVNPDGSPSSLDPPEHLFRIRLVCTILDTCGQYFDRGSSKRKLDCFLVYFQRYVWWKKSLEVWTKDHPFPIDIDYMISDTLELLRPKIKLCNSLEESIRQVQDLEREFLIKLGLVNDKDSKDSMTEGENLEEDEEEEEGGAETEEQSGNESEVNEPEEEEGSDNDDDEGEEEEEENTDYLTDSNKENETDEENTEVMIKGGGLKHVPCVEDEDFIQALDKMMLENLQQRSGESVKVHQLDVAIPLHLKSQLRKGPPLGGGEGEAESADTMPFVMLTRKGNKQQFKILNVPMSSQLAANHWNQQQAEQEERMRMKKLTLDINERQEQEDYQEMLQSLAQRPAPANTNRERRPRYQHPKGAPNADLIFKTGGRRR
FLAG-UPF2^1–1096: residues 1-1096 of Q9HAU5
UniProt O14980: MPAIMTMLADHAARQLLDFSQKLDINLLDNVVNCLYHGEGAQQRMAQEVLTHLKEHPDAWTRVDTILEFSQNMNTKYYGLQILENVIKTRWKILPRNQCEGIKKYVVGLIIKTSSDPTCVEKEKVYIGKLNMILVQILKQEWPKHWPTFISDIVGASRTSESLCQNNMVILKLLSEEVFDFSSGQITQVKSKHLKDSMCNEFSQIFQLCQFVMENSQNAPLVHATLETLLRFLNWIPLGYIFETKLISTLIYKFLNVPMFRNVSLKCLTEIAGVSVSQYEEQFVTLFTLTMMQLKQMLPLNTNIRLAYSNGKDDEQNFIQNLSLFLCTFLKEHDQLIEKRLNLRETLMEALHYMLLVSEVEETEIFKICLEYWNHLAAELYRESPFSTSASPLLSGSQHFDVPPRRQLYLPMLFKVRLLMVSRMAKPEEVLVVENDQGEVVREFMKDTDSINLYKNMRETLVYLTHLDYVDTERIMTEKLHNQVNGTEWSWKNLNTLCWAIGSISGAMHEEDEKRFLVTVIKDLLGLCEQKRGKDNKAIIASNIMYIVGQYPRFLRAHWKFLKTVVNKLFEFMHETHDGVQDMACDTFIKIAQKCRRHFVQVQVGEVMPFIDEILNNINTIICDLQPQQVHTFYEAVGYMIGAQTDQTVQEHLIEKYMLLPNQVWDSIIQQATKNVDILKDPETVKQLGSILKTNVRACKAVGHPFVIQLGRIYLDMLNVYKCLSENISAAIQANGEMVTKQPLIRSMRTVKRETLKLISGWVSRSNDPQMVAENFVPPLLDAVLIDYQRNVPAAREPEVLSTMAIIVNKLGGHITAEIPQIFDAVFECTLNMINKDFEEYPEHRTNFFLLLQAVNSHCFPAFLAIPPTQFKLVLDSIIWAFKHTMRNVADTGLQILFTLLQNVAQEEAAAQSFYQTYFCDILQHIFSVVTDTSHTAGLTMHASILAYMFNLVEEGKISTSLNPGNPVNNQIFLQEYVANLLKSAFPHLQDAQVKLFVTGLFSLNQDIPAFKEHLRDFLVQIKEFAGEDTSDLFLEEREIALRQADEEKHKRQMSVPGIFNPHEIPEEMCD
UniProt P37198: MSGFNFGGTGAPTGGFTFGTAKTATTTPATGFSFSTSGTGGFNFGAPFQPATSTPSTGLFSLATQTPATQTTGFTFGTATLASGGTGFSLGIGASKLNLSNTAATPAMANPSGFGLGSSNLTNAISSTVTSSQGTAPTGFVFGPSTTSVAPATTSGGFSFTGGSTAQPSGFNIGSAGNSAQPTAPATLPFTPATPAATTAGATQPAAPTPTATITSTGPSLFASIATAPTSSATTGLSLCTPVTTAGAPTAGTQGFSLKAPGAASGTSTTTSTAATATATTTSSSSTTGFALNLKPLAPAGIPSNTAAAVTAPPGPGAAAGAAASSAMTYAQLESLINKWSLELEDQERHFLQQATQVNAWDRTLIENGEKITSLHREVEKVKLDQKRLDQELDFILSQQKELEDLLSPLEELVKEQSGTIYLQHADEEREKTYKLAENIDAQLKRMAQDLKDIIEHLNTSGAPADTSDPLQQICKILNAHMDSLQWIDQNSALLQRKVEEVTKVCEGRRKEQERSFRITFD
UniProt O00571: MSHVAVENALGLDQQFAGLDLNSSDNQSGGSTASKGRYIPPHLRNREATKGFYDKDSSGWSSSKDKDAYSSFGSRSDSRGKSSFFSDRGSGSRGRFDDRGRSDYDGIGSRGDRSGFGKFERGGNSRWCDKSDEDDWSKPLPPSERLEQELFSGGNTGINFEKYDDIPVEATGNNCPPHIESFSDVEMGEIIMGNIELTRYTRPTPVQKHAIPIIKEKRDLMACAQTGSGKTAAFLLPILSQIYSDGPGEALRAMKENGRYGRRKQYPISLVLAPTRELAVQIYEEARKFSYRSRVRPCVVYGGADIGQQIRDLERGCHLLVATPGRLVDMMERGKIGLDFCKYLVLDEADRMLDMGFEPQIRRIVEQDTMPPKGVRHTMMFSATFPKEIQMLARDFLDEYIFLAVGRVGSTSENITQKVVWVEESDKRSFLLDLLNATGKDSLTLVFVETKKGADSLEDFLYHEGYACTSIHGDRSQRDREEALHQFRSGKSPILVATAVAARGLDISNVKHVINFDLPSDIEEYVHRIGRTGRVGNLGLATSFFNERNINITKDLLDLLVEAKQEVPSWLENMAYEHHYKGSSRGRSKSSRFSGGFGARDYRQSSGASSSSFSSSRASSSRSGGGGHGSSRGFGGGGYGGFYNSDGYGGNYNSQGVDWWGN
UniProt P04406: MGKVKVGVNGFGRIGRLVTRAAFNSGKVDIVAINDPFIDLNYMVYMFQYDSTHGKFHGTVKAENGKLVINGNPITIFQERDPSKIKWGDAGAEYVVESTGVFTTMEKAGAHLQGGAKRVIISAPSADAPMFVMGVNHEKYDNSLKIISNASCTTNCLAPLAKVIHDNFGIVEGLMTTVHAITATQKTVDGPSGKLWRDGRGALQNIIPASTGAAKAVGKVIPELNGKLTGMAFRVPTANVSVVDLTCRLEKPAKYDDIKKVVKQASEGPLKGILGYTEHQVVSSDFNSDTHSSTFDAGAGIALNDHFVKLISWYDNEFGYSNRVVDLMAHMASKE
UniProt P04618: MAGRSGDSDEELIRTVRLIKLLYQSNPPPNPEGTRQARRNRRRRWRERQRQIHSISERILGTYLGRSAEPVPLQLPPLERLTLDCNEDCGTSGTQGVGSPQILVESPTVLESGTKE

Legend:
[1] = biological target: T1, FLAG-UPF3b (UniProt Q9BZI7); experiment: co-IP
T1 sequence: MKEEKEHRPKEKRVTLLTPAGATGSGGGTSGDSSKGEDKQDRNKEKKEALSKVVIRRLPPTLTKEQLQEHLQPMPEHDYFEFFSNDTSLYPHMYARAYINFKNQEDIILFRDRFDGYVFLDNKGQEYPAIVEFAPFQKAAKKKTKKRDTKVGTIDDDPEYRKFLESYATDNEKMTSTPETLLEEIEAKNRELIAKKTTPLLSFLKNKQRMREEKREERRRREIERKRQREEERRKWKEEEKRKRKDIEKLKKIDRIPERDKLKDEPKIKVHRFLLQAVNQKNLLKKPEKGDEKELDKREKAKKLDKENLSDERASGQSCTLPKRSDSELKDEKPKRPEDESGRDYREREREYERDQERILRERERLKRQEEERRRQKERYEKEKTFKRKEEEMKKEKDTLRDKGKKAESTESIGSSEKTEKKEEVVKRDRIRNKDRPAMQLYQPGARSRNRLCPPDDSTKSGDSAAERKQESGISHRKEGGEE

[2] = biological target: T2, FLAG-UPF3aS (UniProt Q9H1J1); experiment: co-IP
T2 sequence: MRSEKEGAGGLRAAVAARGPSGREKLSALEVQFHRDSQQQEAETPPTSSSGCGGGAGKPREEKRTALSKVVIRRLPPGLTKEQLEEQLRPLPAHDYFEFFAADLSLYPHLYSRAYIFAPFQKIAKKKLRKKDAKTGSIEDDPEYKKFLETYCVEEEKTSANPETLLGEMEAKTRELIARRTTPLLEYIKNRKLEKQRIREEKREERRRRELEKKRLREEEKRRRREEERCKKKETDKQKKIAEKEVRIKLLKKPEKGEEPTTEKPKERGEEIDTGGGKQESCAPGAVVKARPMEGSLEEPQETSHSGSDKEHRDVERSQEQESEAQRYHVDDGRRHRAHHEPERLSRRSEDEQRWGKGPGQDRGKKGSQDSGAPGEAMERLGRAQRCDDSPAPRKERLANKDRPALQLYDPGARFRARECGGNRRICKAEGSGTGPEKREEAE

[3] = biological target: T3, FLAG-UPF3aL (UniProt Q9H1J1); experiment: co-IP
T3 sequence: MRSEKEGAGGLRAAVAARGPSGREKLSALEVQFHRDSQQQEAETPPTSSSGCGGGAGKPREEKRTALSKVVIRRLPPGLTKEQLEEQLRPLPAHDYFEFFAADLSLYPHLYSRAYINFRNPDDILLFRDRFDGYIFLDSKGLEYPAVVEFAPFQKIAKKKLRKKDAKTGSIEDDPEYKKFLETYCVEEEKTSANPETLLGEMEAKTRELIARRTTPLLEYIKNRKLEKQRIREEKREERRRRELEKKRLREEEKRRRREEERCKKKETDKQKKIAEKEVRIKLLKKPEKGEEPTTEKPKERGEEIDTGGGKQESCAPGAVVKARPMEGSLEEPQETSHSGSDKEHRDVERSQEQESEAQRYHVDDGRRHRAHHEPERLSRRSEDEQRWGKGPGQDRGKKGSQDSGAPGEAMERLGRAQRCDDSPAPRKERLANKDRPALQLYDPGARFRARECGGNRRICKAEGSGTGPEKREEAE

[4] = biological target: T4, FLAG-UPF1^WT (pCI-FLAG-UPF1) (UniProt Q92900); experiment: co-IP
T4 sequence: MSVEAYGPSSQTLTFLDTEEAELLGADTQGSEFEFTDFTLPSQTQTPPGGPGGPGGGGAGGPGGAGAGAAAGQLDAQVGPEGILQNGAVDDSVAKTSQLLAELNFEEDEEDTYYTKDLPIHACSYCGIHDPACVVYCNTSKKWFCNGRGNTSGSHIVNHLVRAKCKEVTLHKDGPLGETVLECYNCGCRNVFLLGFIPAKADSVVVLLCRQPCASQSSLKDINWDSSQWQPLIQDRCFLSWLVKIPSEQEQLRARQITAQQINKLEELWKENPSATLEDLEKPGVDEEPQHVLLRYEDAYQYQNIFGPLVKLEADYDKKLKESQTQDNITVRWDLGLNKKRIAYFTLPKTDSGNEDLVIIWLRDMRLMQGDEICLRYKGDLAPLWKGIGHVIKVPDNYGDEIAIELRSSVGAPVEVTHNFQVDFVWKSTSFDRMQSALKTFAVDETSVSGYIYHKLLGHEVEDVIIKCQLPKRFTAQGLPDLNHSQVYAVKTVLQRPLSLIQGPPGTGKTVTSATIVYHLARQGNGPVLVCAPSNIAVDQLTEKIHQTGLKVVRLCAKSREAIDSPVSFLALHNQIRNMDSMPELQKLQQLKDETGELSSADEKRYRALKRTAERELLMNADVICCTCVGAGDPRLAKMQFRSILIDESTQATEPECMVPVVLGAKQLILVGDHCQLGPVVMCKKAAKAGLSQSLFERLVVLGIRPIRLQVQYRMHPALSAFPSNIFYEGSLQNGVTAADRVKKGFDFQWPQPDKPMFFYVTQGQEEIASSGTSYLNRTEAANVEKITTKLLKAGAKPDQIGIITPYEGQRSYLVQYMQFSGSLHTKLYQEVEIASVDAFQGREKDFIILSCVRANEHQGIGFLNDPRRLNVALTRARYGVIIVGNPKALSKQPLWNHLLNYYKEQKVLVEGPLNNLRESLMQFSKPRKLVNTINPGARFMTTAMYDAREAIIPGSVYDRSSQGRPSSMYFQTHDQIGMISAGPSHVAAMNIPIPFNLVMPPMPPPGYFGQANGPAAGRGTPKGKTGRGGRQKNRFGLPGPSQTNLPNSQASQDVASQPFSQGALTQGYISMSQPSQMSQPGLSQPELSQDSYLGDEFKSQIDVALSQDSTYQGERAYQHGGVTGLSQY

[5] = biological target: T4, FLAG-UPF1^WT (pCI-FLAG-UPF1); experiment: co-IP + co-sedimentation
[6] = biological target: FLAG-UPF2^WT (UniProt Q9HAU5); experiment: co-IP
[7] = biological target: T4, FLAG-UPF1^WT (pCI-FLAG-UPF1); experiment: co-IP; remark: listed apart in the source
[8] = biological target: FLAG-UPF2^1–1096 (UniProt Q9HAU5); experiment: co-IP
[9] = biological target: T1, FLAG-UPF3b; experiment: co-IP; remark: listed apart in the source
[10] = biological target: T2, FLAG-UPF3aS; experiment: co-IP; remark: listed apart in the source
[11] = biological target: T3, FLAG-UPF3aL; experiment: co-IP; remark: listed apart in the source

Question: Which results are given for “UPF2 (endogenous) (from UniProt Q9HAU5 1-1272)”?
Answer: binding [1]: binds; binding [2]: no binding; binding [3]: binds; binding [4]: binds

Question: Which results are given for “CRM1 (Chromosomal Maintenance 1) (from UniProt O14980 1-1071)”?
Answer: binding [5]: binds; binding [4]: binds

Question: How did the binding [4] turn out when “nucleoporin p62 (Nup62) (from UniProt P37198 1-522)” was run?
Answer: Its binding is “binds”.

Question: Which binding [4] does the source give for DDX3 (from UniProt O00571 1-662) here?
Answer: Its binding is “binds”.

Question: With GAPDH (from UniProt P04406 1-335) as the molecule, how does the binding [4] read?
Answer: The binding was “no binding”.

Question: Which binding [4] does the source give for “Rev-R-YC (Rev expressor) (from UniProt P04618 1-116)” here?
Answer: The binding was “binds”.

B1: UPF3b (endogenous) (protein, UniProt Q9BZI7 1-483)
chain: T1 sequence
Question: How did the binding [6] turn out when B1 was run?
Answer: Its binding is “binds”.

Question: What about the binding [7] of the same molecule?
Answer: Its binding is “binds”.

Question: What about the binding [8] of the same molecule?
Answer: The binding was “binds”.

Question: What about the binding [5] of the same molecule?
Answer: Its binding is “binds”.

B2: UPF1 (endogenous) (protein, UniProt Q92900 1-1129)
chain: T4 sequence
Question: Which binding [9] does the source give for B2 here?
Answer: The binding was “binds”.

Question: And the binding [10]?
Answer: The binding was “binds”.

Question: What about the binding [11] of the same molecule?
Answer: The binding was “binds”.

Question: And the binding [6]?
Answer: Its binding is “binds”.

Question: And the binding [8]?
Answer: Its binding is “no binding”.
